The other results are listed elsewhere or left out.
test system: HSkMC (human skeletal muscle cells); experiment: cytotoxicity call (relative viability < 0.9); settings: 10 µM

Structure (SMILES) | cytotoxicity call
C[C@@H]1CN([C@H](C)CO)C(=O)c2cc(NC(=O)Nc3ccc4c(c3)OCO4)ccc2O[C@@H]1CN(C)C(=O)Nc1cccc2ccccc12 | active
CN1C(=O)c2cc(NC(=O)C3CCCC3)ccc2OC[C@@H]2O[C@H](CC(=O)NCCc3ccncc3)CC[C@H]21 | inactive
COc1ccccc1C#Cc1ccc2c(c1)O[C@H](CN(C)Cc1cncnc1)[C@H](C)CN([C@@H](C)CO)S2(=O)=O | inactive
C[C@@H]1CN([C@@H](C)CO)C(=O)c2cccc(NC(=O)C3CCOCC3)c2O[C@H]1CN(C)S(=O)(=O)c1ccc(F)cc1 | inactive
CC(C)N1C[C@H](C)[C@@H](CN(C)Cc2ccc(Oc3ccccc3)cc2)Oc2c(NC(=O)c3ccccn3)cccc2C1=O | inactive
COC1=C(OC)C(=O)C(CCCCCCCCCC[P+](c2ccccc2)(c2ccccc2)c2ccccc2)=C(C)C1=O | active
CC(=O)N1[C@H](CO)[C@H](c2ccccc2)[C@H]1CNC(=O)CN1CCOCC1 | inactive
Cc1noc(C)c1S(=O)(=O)Nc1ccc2c(c1)C(=O)N([C@@H](C)CO)C[C@H](C)[C@H](CN(C)S(=O)(=O)c1c(C)noc1C)O2 | inactive
C[C@@H]1CCCCO[C@@H](CN(C)Cc2ccc(Cl)c(Cl)c2)[C@@H](C)CN([C@H](C)CO)C(=O)c2cc(NS(=O)(=O)c3cn(C)cn3)ccc2O1 | inactive
C[C@H](CO)N1C[C@H](C)[C@H](CN(C)S(=O)(=O)c2ccc(Cl)cc2)OCCCC[C@H](C)Oc2ccc(NC(=O)Nc3cccc4ccccc34)cc2C1=O | inactive
COc1ccc(NC(=O)Nc2ccc3c(c2)CC(=O)N([C@H](C)CO)C[C@H](C)[C@@H](CN(C)S(C)(=O)=O)O3)cc1 | inactive
O=C(C[C@@H]1CC[C@@H]2[C@H](COC[C@H](O)CN2S(=O)(=O)c2ccccc2)O1)NCc1ccncn1 | inactive
COc1ccc(S(=O)(=O)Nc2cccc3c2O[C@H](CN(C)C(=O)NC(C)C)[C@H](C)CN([C@H](C)CO)C3=O)cc1 | inactive
CC[C@@H](N)CC12CC3CC(CC(C3)C1)C2 | inactive
CC(C)N(C)C(=O)c1cccc(NC(=O)c2ccncc2)c1OCCCN(C)Cc1ccc(Oc2ccccc2)cc1 | inactive
C[C@@H]1CCCCO[C@@H](CN(C)C(=O)Nc2cccc3ccccc23)[C@@H](C)CN([C@H](C)CO)C(=O)c2cc(NC(=O)c3ccccc3)ccc2O1 | inactive
C[C@@H]1CN([C@H](C)CO)C(=O)c2cc(NC(=O)Nc3ccccc3)ccc2O[C@@H](C)CCCCO[C@H]1CN(C)C(=O)C1CCCCC1 | inactive
C[C@@H]1CN([C@H](C)CO)C(=O)c2c(c3ccccc3n2C)-c2ccccc2CO[C@H]1CN(C)S(=O)(=O)c1ccc(C(F)(F)F)cc1 | active
O=C(C[C@H]1CC[C@H](NS(=O)(=O)c2ccc(F)cc2)[C@@H](CO)O1)N1CCC(Cc2ccccc2)CC1 | inactive
C[C@@H]1CCCCO[C@H](CN(C)S(=O)(=O)c2ccc(Cl)cc2)[C@H](C)CN([C@@H](C)CO)C(=O)c2cc(NC(=O)Nc3ccc4c(c3)OCO4)ccc2O1 | inactive

Structure (SMILES) | cytotoxicity call
C[C@@H]1CCCCO[C@@H](CN(C)C(=O)Nc2ccc(F)cc2)[C@@H](C)CN([C@@H](C)CO)C(=O)c2cc(NC(=O)Nc3ccccc3)ccc2O1 | inactive
C[C@H]1CN([C@@H](C)CO)C(=O)Cc2cc(NS(=O)(=O)c3ccc(F)cc3)ccc2O[C@H]1CN(C)Cc1ccc(Oc2ccccc2)cc1 | active
C[C@H](CO)N1C[C@H](C)[C@@H](CN(C)S(=O)(=O)c2ccccc2C#N)OCc2cnnn2CCCC1=O | inactive
COc1cccc(C#Cc2cnc3c(c2)C(=O)N([C@H](C)CO)C[C@H](C)[C@H](CN(C)C(=O)C2CCC2)O3)c1 | inactive
COc1ccc(NC(=O)N(C)C[C@H]2OCCCC[C@@H](C)Oc3ccc(NS(=O)(=O)c4cccs4)cc3C(=O)N([C@@H](C)CO)C[C@H]2C)cc1 | inactive
CCCC(=O)Nc1ccc2c(c1)OC[C@H](C)N(S(=O)(=O)c1cn(C)cn1)C[C@@H](C)[C@@H](OC)CN(C)C2=O | inactive
O=C(CN1CCOCC1)N[C@H]1CC[C@H](CCn2cc(C3CC3)nn2)O[C@H]1CO | inactive
C[C@H](CO)N1C[C@H](C)[C@H](CN(C)S(C)(=O)=O)OCCCC[C@H](C)Oc2ccc(NC(=O)CCCN(C)C)cc2C1=O | inactive
Cc1noc(C)c1S(=O)(=O)N(C)C[C@H]1Oc2ccc(NC(=O)C3CC3)cc2CC(=O)N([C@@H](C)CO)C[C@@H]1C | inactive
Cc1noc(C)c1NC(=O)Nc1ccc2c(c1)C(=O)N([C@H](C)CO)C[C@@H](C)[C@@H](CN(C)Cc1ccccc1)OCCCC[C@@H](C)O2 | inactive
C[C@@H]1CN([C@@H](C)CO)C(=O)c2cc(NC(=O)CCCCCC(=O)Nc3ccccc3N)ccc2O[C@@H]1CN(C)S(=O)(=O)c1cn(C)cn1 | inactive
COc1ccccc1/C=C/C=C1/C(=O)N(c2cc(C)cc(C)c2)[C@@H](c2cccc([N+](=O)[O-])c2)S1(=O)=O | inactive
CN(C)CCCNC(=O)C[C@@H]1CC[C@H]2[C@@H](COc3ccc(NC(=O)c4ccc5c(c4)OCO5)cc3C(=O)N2C)O1 | inactive
O=C(C[C@@H]1C=C[C@@H](NC(=O)CN2CCOCC2)[C@@H](CO)O1)NCCc1ccncc1 | inactive
COCC(=O)N(C)C[C@@H]1Oc2cc(C#CCC3CCCC3)ccc2S(=O)(=O)N([C@H](C)CO)C[C@H]1C | inactive
C[C@@H]1CCCCO[C@@H](CN(C)Cc2ccc(C(F)(F)F)cc2)[C@@H](C)CN([C@H](C)CO)C(=O)c2cc(NC(=O)CCC(F)(F)F)ccc2O1 | inactive
COc1ccc(NC(=O)Nc2ccc3c(c2)CC(=O)N([C@@H](C)CO)C[C@H](C)[C@H](CN(C)Cc2ccc(C(F)(F)F)cc2)O3)cc1 | active
C[C@@H]1CCCCO[C@@H](CN(C)C(=O)C2CCCCC2)[C@H](C)CN([C@@H](C)CO)C(=O)c2cc(NS(=O)(=O)c3ccc(Cl)cc3)ccc2O1 | inactive
C[C@@H]1CN([C@H](C)CO)C(=O)c2cc(Br)cnc2O[C@@H]1CN(C)S(=O)(=O)c1ccc(F)cc1 | inactive
C[C@@H]1CCCCO[C@@H](CN(C)Cc2ccc(C(F)(F)F)cc2)[C@@H](C)CN([C@@H](C)CO)C(=O)c2cc(NS(=O)(=O)c3ccc(Cl)cc3)ccc2O1 | inactive

— the antibiotic and cytotoxicity screens of Wong et al. (2023)
